# Results taken from the supplement of paper PMC8728848.
# The list shows a part of the results.
# Columns and labels:
# Experiment in all cases: glycan array binding signal (z-score within array); higher = stronger binding
# Settings in all cases: glycan notation: IUPAC condensed, linker removed
# [1] = molecular target: Gal(a1-3)[Gal(a1-4)]Gal(b1-4)GlcNAc
# How it was run: (§1)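 Columns mapping to the same glycan were averaged after glycan names were converted to IUPAC-condensed notation. The data come from 3228 arrays in the Consortium for Functional Glycomics database, limited to those with an available protein sequence. Binding is reported as a within-array Z-score averaged across arrays of one protein sequence and across linkers.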
# [2] = molecular target: Gal(a1-4)Gal(b1-3)GlcNAc(b1-2)Man(a1-3)[Gal(a1-4)Gal(b1-3)GlcNAc(b1-2)Man(a1-6)]Man(b1-4)GlcNAc(b1-4)GlcNAc
# How it was run: as §1
# Gal(a1-4)Gal(b1-4)Glc = molecular target: Gal(a1-4)Gal(b1-4)Glc
# How it was run: as §1
# Gal(a1-4)Gal(b1-4)GlcNAc = molecular target: Gal(a1-4)Gal(b1-4)GlcNAc
# How it was run: as §1
# [3] = molecular target: Gal(a1-4)Gal(b1-4)GlcNAc(b1-2)Man(a1-3)[Gal(a1-4)Gal(b1-4)GlcNAc(b1-2)Man(a1-6)]Man(b1-4)GlcNAc(b1-4)GlcNAc
# How it was run: as §1
# [4] = molecular target: Gal(a1-4)Gal(b1-4)GlcNAc(b1-3)Gal(b1-4)Glc
# How it was run: as §1
# Gal(a1-4)GlcNAc = molecular target: Gal(a1-4)GlcNAc
# How it was run: as §1
# Gal(a1-6)Glc = molecular target: Gal(a1-6)Glc
# How it was run: as §1
# Gal(b1-2)Gal = molecular target: Gal(b1-2)Gal
# How it was run: as §1
# Gal(b1-3)Gal = molecular target: Gal(b1-3)Gal
# How it was run: as §1
# Gal(b1-3)Gal(b1-4)GlcNAc = molecular target: Gal(b1-3)Gal(b1-4)GlcNAc
# How it was run: as §1
# Gal(b1-3)GalNAc = molecular target: Gal(b1-3)GalNAc
# How it was run: as §1
# [5] = molecular target: Gal(b1-3)GalNAc(a1-3)[Fuc(a1-2)]Gal(b1-4)Glc
# How it was run: as §1
# [6] = molecular target: Gal(b1-3)GalNAc(a1-3)[Fuc(a1-2)]Gal(b1-4)GlcNAc
# How it was run: as §1
# Gal(b1-3)GalNAc(b1-3)Gal = molecular target: Gal(b1-3)GalNAc(b1-3)Gal
# How it was run: as §1
# [7] = molecular target: Gal(b1-3)GalNAc(b1-3)Gal(a1-4)Gal(b1-4)Glc
# How it was run: as §1
# [8] = molecular target: Gal(b1-3)GalNAc(b1-4)Gal(b1-4)Glc
# How it was run: as §1
# [9] = molecular target: Gal(b1-3)GalNAc(b1-4)[Neu5Ac(a2-3)]Gal(b1-4)Glc
# How it was run: as §1
# Gal(b1-3)GlcNAc = molecular target: Gal(b1-3)GlcNAc
# How it was run: as §1
# [10] = molecular target: Gal(b1-3)GlcNAc(a1-3)Gal(b1-4)GlcNAc
# How it was run: as §1
# [11] = molecular target: Gal(b1-3)GlcNAc(a1-6)Gal(b1-4)GlcNAc
# How it was run: as §1
# Gal(b1-3)GlcNAc(b1-2)Man = molecular target: Gal(b1-3)GlcNAc(b1-2)Man
# How it was run: as §1
# [12] = molecular target: Gal(b1-3)GlcNAc(b1-2)Man(a1-3)[Gal(b1-3)GlcNAc(b1-2)Man(a1-6)]Man(b1-4)GlcNAc(b1-4)GlcNAc
# How it was run: as §1
# [13] = molecular target: Gal(b1-3)GlcNAc(b1-2)Man(a1-3)[Gal(b1-3)GlcNAc(b1-2)Man(a1-6)]Man(b1-4)GlcNAc(b1-4)[Fuc(a1-6)]GlcNAc
# How it was run: as §1
# [14] = molecular target: Gal(b1-3)GlcNAc(b1-2)Man(a1-3)[GlcNAc(b1-4)][Gal(b1-3)GlcNAc(b1-2)Man(a1-6)]Man(b1-4)GlcNAc(b1-4)GlcNAc
# How it was run: as §1
# [15] = molecular target: Gal(b1-3)GlcNAc(b1-2)[Gal(b1-3)GlcNAc(b1-6)]Man(a1-6)[Gal(b1-3)GlcNAc(b1-2)Man(a1-3)]Man(b1-4)GlcNAc(b1-4)GlcNAc
# How it was run: as §1
# [16] = molecular target: Gal(b1-3)GlcNAc(b1-3)Gal(b1-3)GlcNAc
# How it was run: as §1
# [17] = molecular target: Gal(b1-3)GlcNAc(b1-3)Gal(b1-4)Glc
# How it was run: as §1
# [18] = molecular target: Gal(b1-3)GlcNAc(b1-3)Gal(b1-4)GlcNAc
# How it was run: as §1
# [19] = molecular target: Gal(b1-3)GlcNAc(b1-3)Gal(b1-4)GlcNAc(b1-2)Man(a1-3)[Gal(b1-3)GlcNAc(b1-3)Gal(b1-4)GlcNAc(b1-2)Man(a1-6)]Man(b1-4)GlcNAc(b1-4)GlcNAc
# How it was run: as §1
# [20] = molecular target: Gal(b1-3)GlcNAc(b1-3)Gal(b1-4)GlcNAc(b1-2)[Gal(b1-3)GlcNAc(b1-3)Gal(b1-4)GlcNAc(b1-6)]Man(a1-6)[Gal(b1-3)GlcNAc(b1-3)Gal(b1-4)GlcNAc(b1-2)Man(a1-3)]Man(b1-4)GlcNAc(b1-4)[Fuc(a1-6)]GlcNAc
# How it was run: as §1
# [21] = molecular target: Gal(b1-3)GlcNAc(b1-3)Gal(b1-4)GlcNAc(b1-3)Gal(b1-4)GlcNAc(b1-2)[Gal(b1-3)GlcNAc(b1-3)Gal(b1-4)GlcNAc(b1-3)Gal(b1-4)GlcNAc(b1-6)]Man(a1-6)[Gal(b1-3)GlcNAc(b1-3)Gal(b1-4)GlcNAc(b1-3)Gal(b1-4)GlcNAc(b1-2)Man(a1-3)]Man(b1-4)GlcNAc(b1-4)[Fuc(a1-6)]GlcNAc
# How it was run: as §1
# [22] = molecular target: Gal(b1-3)GlcNAc(b1-3)Gal(b1-4)GlcNAc(b1-6)[Gal(b1-3)GlcNAc(b1-3)]Gal(b1-4)Glc
# How it was run: as §1
# [23] = molecular target: Gal(b1-3)GlcNAc(b1-3)Gal(b1-4)[Fuc(a1-3)]GlcNAc
# How it was run: as §1
# [24] = molecular target: Gal(b1-3)GlcNAc(b1-3)Gal(b1-4)[Fuc(a1-3)]GlcNAc(b1-6)[Gal(b1-3)GlcNAc(b1-3)]Gal(b1-4)Glc
# How it was run: as §1
# [25] = molecular target: Gal(b1-3)GlcNAc(b1-3)GalNAc
# How it was run: as §1
# [26] = molecular target: Gal(b1-3)GlcNAc(b1-6)Gal(b1-4)GlcNAc
# How it was run: as §1
# [27] = molecular target: Gal(b1-3)GlcNAc(b1-6)GalNAc
# How it was run: as §1
binder,measurement,setting,value
GS13686A-pdi-553-26-553 (Parabacteroides distasonis) (protein) NENPDKPTDDVNYNMNEPRLASTLRGGLIIEGNVEQRLKPLQIDFYSQMTVDGGGWGTKNYIQDDEWNNLVWEEYLKQIASINIVIRSLTEKDKDAYANTIAFARIWRVYVHTLAADKFGPMPFPAYEIVEANPPYKSLKDIYDEYFRELDAAINGFNDSAQPIFSDAGIDLIYKNDVSKWKRFANSLRLRLAVRLTEVDQEKCIAEANAAISSPAGLISDKADNAYMPPKADGSWGQDYNYTMFQITWSGPICMSKSVEKLVTNIGGVAWPQGVVNQTSGVAVSSVHPEKVDPRAPKIFQPGIENGDWKGLVYGPKAEEANTGIYQSKQCAELGFIIKDGYPYKSRPYDLFLSEEVHFLKAELYARGFIAGDAKSEYEAGVRASFATWGVTSEVDDYLTSTEKNEAGTSARYDDQQGAGNTALEKIITQKYIAGIPDLAQEGWNDKRRLNLPRLDVAVYRDQAVYNNNDKDILKSANFIKRMRYPTKESLINATEYEKGKSMLGGKGDIVSTPLWWDKNSNYCTSSK,glycan array binding signal (z-score),[1],-0.185
same,glycan array binding signal (z-score),[2],0.371
same,glycan array binding signal (z-score),Gal(a1-4)Gal(b1-4)Glc,-0.1
same,glycan array binding signal (z-score),Gal(a1-4)Gal(b1-4)GlcNAc,-0.048
same,glycan array binding signal (z-score),[3],-0.062
same,glycan array binding signal (z-score),[4],-0.28
same,glycan array binding signal (z-score),Gal(a1-4)GlcNAc,0.048
same,glycan array binding signal (z-score),Gal(a1-6)Glc,0.108
same,glycan array binding signal (z-score),Gal(b1-2)Gal,-0.367
same,glycan array binding signal (z-score),Gal(b1-3)Gal,-0.215
same,glycan array binding signal (z-score),Gal(b1-3)Gal(b1-4)GlcNAc,-0.316
same,glycan array binding signal (z-score),Gal(b1-3)GalNAc,0.011
same,glycan array binding signal (z-score),[5],-0.021
same,glycan array binding signal (z-score),[6],-0.478
same,glycan array binding signal (z-score),Gal(b1-3)GalNAc(b1-3)Gal,0.196
same,glycan array binding signal (z-score),[7],-0.148
same,glycan array binding signal (z-score),[8],0.156
same,glycan array binding signal (z-score),[9],0.13
same,glycan array binding signal (z-score),Gal(b1-3)GlcNAc,-0.223
same,glycan array binding signal (z-score),[10],0.198
same,glycan array binding signal (z-score),[11],-0.075
same,glycan array binding signal (z-score),Gal(b1-3)GlcNAc(b1-2)Man,0.482
same,glycan array binding signal (z-score),[12],0.154
same,glycan array binding signal (z-score),[13],0.29
same,glycan array binding signal (z-score),[14],-0.108
same,glycan array binding signal (z-score),[15],0.046
same,glycan array binding signal (z-score),[16],0
same,glycan array binding signal (z-score),[17],-0.082
same,glycan array binding signal (z-score),[18],-0.194
same,glycan array binding signal (z-score),[19],0.068
same,glycan array binding signal (z-score),[20],1.83
same,glycan array binding signal (z-score),[21],0.051
same,glycan array binding signal (z-score),[22],0.072
same,glycan array binding signal (z-score),[23],-0.361
same,glycan array binding signal (z-score),[24],-0.362
same,glycan array binding signal (z-score),[25],0.013
same,glycan array binding signal (z-score),[26],-0.32
same,glycan array binding signal (z-score),[27],1.97
